Data taken from PubChem BioAssay AID504339 (National Center for Advancing Translational Sciences (NCATS), 2011).
Out of some 390,000 compounds screened, about 17,000 (4.4%) were called active. The inconclusive results got no clear call from the source; some entries with a clear call stand among them for comparison. Calls follow the shape of the dose curve; as a rule, active = well fitted inhibition curve with a large enough effect; inconclusive = small, poorly fitted or top-dose-only effect; inactive = no such curve, though single readings can be large or run the other way. Where the call is inconclusive, the potency comes from a doubtful curve fit.

What follows are compounds tested against Lysine-specific demethylase 4A (Homo sapiens) (UniProt O75164) (assay: qHTS Assay for Inhibitors of JMJD2A-Tudor Domain). Conditions: AlphaScreen JMJD2A-Tudor / H3K4me3 peptide binding; activity change, negative = inhibition: at 114 µM (top of the series).
% is scaled to controls: 0 for no effect and ±100 for the full control effect; potency is read from the fitted curve at half-maximal effect; tags tell the direction and shape of the fitted curve.
Also: nearly all actives have a fitted effect of over 50% in size.

UniProt O75164, sequence (O75164 whole entry, looked up, the tested form may be a part): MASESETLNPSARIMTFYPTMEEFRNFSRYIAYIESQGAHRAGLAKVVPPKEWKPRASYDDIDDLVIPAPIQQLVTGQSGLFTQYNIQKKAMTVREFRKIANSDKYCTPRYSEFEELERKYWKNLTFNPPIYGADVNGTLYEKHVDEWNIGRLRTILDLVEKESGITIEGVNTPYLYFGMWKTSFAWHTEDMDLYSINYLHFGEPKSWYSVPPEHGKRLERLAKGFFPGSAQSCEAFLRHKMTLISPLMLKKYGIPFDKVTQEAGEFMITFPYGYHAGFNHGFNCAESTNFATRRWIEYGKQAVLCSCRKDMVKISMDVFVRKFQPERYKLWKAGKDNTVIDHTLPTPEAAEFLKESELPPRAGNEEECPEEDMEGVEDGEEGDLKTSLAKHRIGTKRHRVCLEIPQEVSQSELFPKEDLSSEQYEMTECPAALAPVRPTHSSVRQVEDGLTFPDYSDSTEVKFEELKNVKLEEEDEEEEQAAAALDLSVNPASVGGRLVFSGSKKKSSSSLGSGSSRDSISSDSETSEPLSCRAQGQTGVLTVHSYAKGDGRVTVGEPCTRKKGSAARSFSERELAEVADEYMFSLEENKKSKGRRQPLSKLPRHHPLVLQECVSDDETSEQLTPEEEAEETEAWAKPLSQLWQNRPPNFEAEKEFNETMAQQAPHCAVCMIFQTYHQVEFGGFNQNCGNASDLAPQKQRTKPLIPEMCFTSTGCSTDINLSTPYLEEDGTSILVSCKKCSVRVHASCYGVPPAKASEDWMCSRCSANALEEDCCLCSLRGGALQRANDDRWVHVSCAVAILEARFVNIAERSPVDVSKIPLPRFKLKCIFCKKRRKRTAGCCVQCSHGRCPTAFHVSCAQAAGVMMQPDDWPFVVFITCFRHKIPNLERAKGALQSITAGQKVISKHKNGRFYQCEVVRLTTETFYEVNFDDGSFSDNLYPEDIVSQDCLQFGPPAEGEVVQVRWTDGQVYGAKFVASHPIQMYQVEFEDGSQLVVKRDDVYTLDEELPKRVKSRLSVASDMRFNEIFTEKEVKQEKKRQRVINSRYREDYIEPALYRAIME

Compound	activity change, negative = inhibition	Potency
O=C(N/N=C/c1ccc(Br)s1)c1ccccn1	inactive: -5.57%	
O=C(Nc1nc2ccccc2[nH]1)C1CC(=O)N(c2ccc3c(c2)OCCO3)C1 (stereo not given)		inconclusive: 79.4 µM [inhibitor, partial curve]
CCOC(=O)c1ccc(NC(=S)Nc2ccc(Br)cc2N)cc1		inconclusive: 39.8 µM [inhibitor, single point]
Cc1ccsc1C=C1C(=O)c2ccccc2C1=O		inconclusive: 50.1 µM [inhibitor, partial curve]
CCCOc1ccc(CNC(=O)CCCN2C(=O)CSc3c2c(C)nn3-c2ccccc2)cc1		inconclusive: 56.2 µM [inhibitor, partial curve]
COc1ccc2c(CC#N)c[nH]c2c1	inactive: -13%	
S=c1[nH]nc(-c2ccc3ccccc3n2)n1-c1ccc(Cl)cc1		inconclusive: 79.4 µM [inhibitor, partial curve]
CCOc1ccccc1NC(=O)COC(=O)CNS(=O)(=O)c1ccc(C)cc1	inactive: -8.01%	
Cc1ccccc1NC(=O)Cc1nc(COC(=O)c2cc([N+](=O)[O-])ccc2NCCO)cs1		inconclusive: 25.1 µM [inhibitor, full curve, poor fit]
Cc1cs/c(=N\N=C\c2ccc(O)cc2)n1Cc1ccco1		inconclusive: 44.7 µM [inhibitor, single point]
Brc1ccc(-c2csc(NNC3=NCCCCC3)n2)cc1		inconclusive: 50.1 µM [inhibitor, partial curve]
COc1ccc(N2CCN(C(=O)C(=O)c3cn(CC(=O)N4CCCCCC4)c4ccccc34)CC2)cc1		inconclusive: 63.1 µM [inhibitor, partial curve, poor fit]
CCOC(=O)N1CCN(C2=C(NS(=O)(=O)c3ccc(C)cc3)C(=O)c3ccccc3C2=O)CC1		active: 22.4 µM
Cc1ccc(C)n1-n1c(C)nc2scc(-c3ccccc3)c2c1=O		inconclusive: 44.7 µM [inhibitor, partial curve]
CC1CCCN(C(=O)c2cn(-c3ccccc3)nc2-c2cccnc2)C1 (stereo not given)	inactive: -6.21%	
O=C(Nc1nc(-c2ccccc2)ns1)c1ccncc1	inactive: -18.4% [at 11.4 µM]	
Cc1cccc(N2CC(C(=O)Nc3ccc(S(=O)(=O)NCC4CCCO4)cc3)CC2=O)c1C (stereo not given)	inactive: -4.58%	
Cc1cc(C)c(OCCCON2C(=O)CCC2=O)c(Br)c1	inactive: -3.51%	
COc1cccc(NC(=O)Cc2ccc(NC(=O)N3CCCCc4ccccc43)cc2)c1		active: 11.2 µM
CCCN1C(=O)c2[nH]nc(-c3ccc(F)cc3)c2C1c1ccc(O)c(OCC)c1 (stereo not given)	inactive: -16.4%	
CCn1c(SCC(=O)Nc2nc3ccc(OC)cc3s2)nnc1-c1ccoc1C		inconclusive: 56.2 µM [inhibitor, partial curve]
C=CCOc1c(Cl)cc(CNn2cn[nH]c2=S)cc1OC		inconclusive: 56.2 µM [inhibitor, partial curve]
Cc1ccc(-n2ccnc2SCC(=O)N(CC(C)C)C2CCS(=O)(=O)C2)c(C)c1 (stereo not given)		active: 20 µM
CC1(C2(O)CCCCC2)NCCc2ccccc21 (stereo not given)		active: 0.891 µM

Compound	activity change, negative = inhibition	Potency
Cc1occc1C(=O)Nc1nn[nH]n1		active: 44.7 µM
Cc1ccc(S(=O)(=O)N2CCN(S(=O)(=O)N3CCOCC3)CC2)cc1	inactive: -9.43%	
CCOc1ccc(N(CC(=O)OC)S(=O)(=O)c2c(C)noc2C)cc1		inconclusive: 20 µM [inhibitor, full curve, poor fit]
COc1ccc(N2CCN(C(=O)C3CCC(Cn4c(=S)[nH]c5ccccc5c4=O)CC3)CC2)cc1 (stereo not given)		inconclusive: 35.5 µM [inhibitor, partial curve]
N#C/C(=C\c1ccc(OCc2ccc(C(=O)O)cc2)cc1)C(=O)NCc1ccccc1		inconclusive: 50.1 µM [inhibitor, partial curve]
C/C(CC1(O)/C(=N/O)CCc2nonc21)=N\O (stereo not given)		active: 15.8 µM
Cc1cc(C)cc(N=c2c([N+](=O)[O-])nn(-c3ccc(Cl)cc3)n2O)c1		inconclusive: 7.08 µM [inhibitor, full curve, poor fit]
Cc1ccc(CNC(=O)CCCn2c(=O)c3ccccc3n(Cc3ccccc3Cl)c2=O)cc1	inactive: -8.22%	
CC(C)=CCc1c(O)cc2c(=O)c3ccc(O)cc3oc2c1O		inconclusive: 56.2 µM [inhibitor, partial curve]
O=C(c1cccc([N+](=O)[O-])c1)N1c2nc(-c3ccco3)nn2C2(CCCCC2)[C@@H]2CCCC[C@@H]21		inconclusive: 12.6 µM [inhibitor, full curve]
CCOc1ccc(C(=O)NCC(C)NC(=O)c2ccc(OCC)cc2)cc1 (stereo not given)		inconclusive: 89.1 µM [inhibitor, single point]
N#CC1=C(N)n2c(s/c(=C\c3ccco3)c2=O)=C(C#N)C1c1ccco1 (stereo not given)		active: 56.2 µM
COc1ccc(C(C(=O)Nc2ccc3c(c2)OCO3)N(C)C(=O)Cc2c[nH]c3ccccc23)cc1 (stereo not given)		inconclusive: 17.8 µM [inhibitor, full curve]
Cc1cccc2c1-c1sc(C(=O)Nc3ccccc3N3CCN(C)CC3)cc1CO2		inconclusive: 44.7 µM [inhibitor, partial curve]
O=C1Nc2cc(C(=O)NCCN3CCCCCC3)ccc2S/C1=C\c1ccccc1		inconclusive: 39.8 µM [inhibitor, partial curve]
Cc1cc(=O)[nH]c(N/N=C/CCc2ccccc2)n1	inactive: -19.4%	
CCOC(=O)c1c(NC(=S)N2CCOCC2)sc2c1CCN(C(=O)OCC)C2		inconclusive: 20 µM [inhibitor, full curve]
COc1cc2c(cc1NC(=O)C(Cl)Cl)-c1ccc(NC(=O)C(Cl)Cl)cc1C2		inconclusive: 56.2 µM [inhibitor, partial curve]
O=C(O)CN(Cc1ccco1)S(=O)(=O)c1ccc(F)cc1		inconclusive: 22.4 µM [inhibitor, partial curve]
CCCOc1ccc(-c2nc(SCc3ccccc3)[nH]c(=O)c2C#N)cc1OC		inconclusive: 79.4 µM [inhibitor, partial curve]
Nc1[nH][nH]c(=O)c1N=Nc1ccc2c(c1)OCO2		inconclusive: 56.2 µM [inhibitor, partial curve, poor fit]
CCOC(=O)c1c(C)[nH]c(C)c1S(=O)(=O)N(C)CC(=O)N1CCN(c2cccc(C)c2C)CC1		inconclusive: 56.2 µM [inhibitor, partial curve]
CCc1ccc2c(Cl)c(C(=O)N/N=C/c3c[nH]c4ccccc34)sc2c1		inconclusive: 79.4 µM [inhibitor, partial curve]
COc1ccc(-c2cc(C(F)F)n3ncc(C(=O)N4CCc5ccccc54)c3n2)cc1		active: 20 µM

Compound	activity change, negative = inhibition	Potency
COc1ccccc1C(CCNCc1ccccc1)c1ccc(OC(C)C)cc1 (stereo not given)	inactive: -22.8%	
CCOc1ccc(NC(=O)Cn2c(=O)n(CC(=O)NCCc3ccccc3)c(=O)c3sccc32)cc1	inactive: -17.4%	
COc1ccc(CCNC(=O)COC(=O)c2ccco2)cc1OC	inactive: -3.03%	
CCCn1c(NCc2c[nH]c3ccccc23)nc2ccccc21		inconclusive: 63.1 µM [inhibitor, partial curve]
CCCC(C)NC(=O)CSc1nc(-c2ccccc2)cn1N (stereo not given)		inconclusive: 28.2 µM [inhibitor, full curve]
Cc1ccc(-n2ccn(CC(=O)c3ccc(F)cc3)c(=O)c2=O)cc1C	inactive: -6.91%	
CC(=O)N1CCCc2cc(S(=O)(=O)Nc3ccc(OC(F)(F)F)cc3)ccc21	inactive: 1.29%	
Cn1c(=O)[nH]c2cc(Cl)cnc21	inactive: -11.9%	
COC(=O)c1cc(CN2CCN(c3ccccc3C)CC2)ccc1O		active: 2 µM
Cc1ccc(Nc2nc(CSc3nnc(-c4ccccc4)n3C)cs2)cc1		inconclusive: 56.2 µM [inhibitor, partial curve]
O=[N+]([O-])c1cc(-c2csc(NCCc3nc4cc(Cl)c(Cl)cc4n3CCCO)n2)ccc1Cl		inconclusive: 79.4 µM [inhibitor, partial curve]
COc1cccc(N2CCN(c3ccc4nnc(CCC(=O)N5CCC(C)CC5)n4n3)CC2)c1		inconclusive: 22.4 µM [inhibitor, full curve, poor fit]
c1ccc(Oc2c3ccccc3nc3ccccc23)cc1	inactive: 19.4%	
O=C(Nc1ccc(S(=O)(=O)N2CCCC2)cc1)C1CC(=O)N(c2ccccc2)C1 (stereo not given)		inconclusive: 39.8 µM [inhibitor, single point]
COCCCN1C(=O)C(=O)/C(=C(/O)c2ccc3c(c2)CC(C)O3)C1c1cccnc1 (stereo not given)		inconclusive: 79.4 µM [inhibitor, partial curve]
COc1ccc(N(CC(=O)NCCSC2CCCCC2)S(=O)(=O)c2ccccc2)cc1OC	inactive: -13.8%	
Cc1ccc(S(=O)(=O)N2CCN(C(=O)CNC(=O)c3sc4ccccc4c3Cl)CC2)cc1		inconclusive: 89.1 µM [inhibitor, single point]
CC(CNC(=O)Cn1c(-c2cccs2)cc2cc(Cl)ccc21)c1ccccc1 (stereo not given)	inactive: -8.91%	
COC(=O)C1=C(C)N(Cc2ccccc2)C(=NCCc2ccccn2)N[C@H]1c1cccc(C(F)(F)F)c1		inconclusive: 31.6 µM [inhibitor, partial curve]
O=C(NCc1cc(C(F)(F)F)ccc1Cl)c1cccc2c1C(=O)c1ccc(N3CCC(Cc4ccccc4)CC3)cc1S2(=O)=O	inactive: 11.9%	
O=C(Nc1ccnn1C1CCN(C2CCCCC2)CC1)c1cccc(F)c1		active: 25.1 µM
CC(C)n1ncc2c(C(=O)N3CCN(c4ccc(F)cc4)CC3)cc(-c3ccccc3)nc21		inconclusive: 56.2 µM [inhibitor, partial curve, poor fit]
